These results are taken from the supplement of paper PMC11417369.

The list shows a part of the results.

This assay deals with PfSIP2 AP2 domain 1 (GST-tagged). The experiment in a line: gcPBM binding intensity (ln(normalized median fluorescence intensity)); higher = stronger DNA binding. Put shortly:
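Probes on an Agilent 4 × 180k array were primer-extended, double-stranded and 36 bp long, taken from intergenic genomic regions, with negative controls added. GST-tagged P. falciparum DNA-binding domains from E. coli, about 25 μg on average, were applied to the array for 1 h in 1× PBS containing 1% milk, 0.2 mg/ml BSA, 0.5% salmon testes DNA and 0.03% Triton X-100. Binding intensity, obtained after Alexa488 anti-GST antibody detection and a 488 nm scan, is the highest Masliner-normalised natural-log median intensity across replicate spots of either probe orientation.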
Take “TCATTATTAATATGTAGTACATTATATGATATGTAT [XGTACX_site8978]”: the “gcPBM binding intensity (ln)” value worked out at 7.04.
For the sequence “TTCTTTTTAAATTACACACACATATATATCTGTATA [CACACA_site5863]”, the “gcPBM binding intensity (ln)” value was found to be 7.28.
For “TAAAGGATTTTCGAAGCATGCCACCTGTGACATACT [TGCATGCA_site130]” the value was 6.5.
On to “TTTATACAATTAGACACACACAAAAAGTATATATAT [CACACA_site1082]”, for which the “gcPBM binding intensity (ln)” value turned out to be 7.42.
Turning to “CATTCAAAGAAAAACTGTACGTGTAGCAAACGTCAT [XGTACX_site2576]”, the “gcPBM binding intensity (ln)” value worked out at 6.88.
Consider “CAAATACCCGGACACACACACACAAAAAAAAAAAAA [CACACA_site4441]”, for which the “gcPBM binding intensity (ln)” value amounted to 7.41.
In the case of “ATGGGTATATTTCCACGTACAAAAAATCCGAATTGC [XGTACX_site1490]”, the “gcPBM binding intensity (ln)” value worked out at 7.13.
For “ATATAATTACATTGATGTACACGAAATGATTAACAT [XGTACX_site5183]”, the “gcPBM binding intensity (ln)” value was found to be 6.92.
“GTATATATTAAAAAAAAAAAAAAAAAATTAAAATTA [CACACA_negctrl_site572]”: the “gcPBM binding intensity (ln)” value stood at 6.71.
For GGAATATTAATAAGAGTGCATTTTGTATTCAATATG the value was 8.81; for “AAAAAAAAAATTCATTGTACATATATATATATATAT [XGTACX_site8346]”, 9.59.
As for “TAGACTGGACATTAATGTACATAAATATATATGTAT [XGTACX_site7726]”, the “gcPBM binding intensity (ln)” value was found to be 6.86.
Turning to “TATAAGAAAAATAACACACACATAAACATATATACA [CACACA_site2785]”, the “gcPBM binding intensity (ln)” value turned out to be 7.08.
For “ATAAGAAGAAGAAAAACACACATATGTAGATATATA [CACACA_site7469]” the value was 6.98; for “TGGTTATTTATCTTTATTATAAATATTTACAAATAA [CACACA_negctrl_site1773]”, 7.21.
Regarding “ATATATATATATATATGTACTTATTTATATATTTAT [XGTACX_site7811]”, the “gcPBM binding intensity (ln)” value amounted to 9.57.
Under “ATGCTTCCTTAGGAATGTACACACATATATAATATG [XGTACX_site873]” stands 6.98.
For “ATAAAAATAAAAAACTGTACATACAAGATGTTACAG [XGTACX_site6690]” the value was 6.85; for “AAATAATATTTTACATGTACATAATAATTATTGGAT [XGTACX_site2783]”, 7.07.
With “TAAATATTTAAATATTGTACTAGGTATAATTGAATA [XGTACX_site3604]”, the “gcPBM binding intensity (ln)” value came to 6.79.
For the sequence “TTATTGTACTTGCTCGCATGCAATAAAAATATATTA [TGCATGCA_site580]”, the “gcPBM binding intensity (ln)” value was determined as 7.01.
“ATATATATAAACAAAAGTACATATATAAATTCATTT [XGTACX_site3482]”: the “gcPBM binding intensity (ln)” value is 7.46.
With “TCTTATATTATATTGTGTATTAAAATTTAACTTCAA [TGCATGCA_negctrl_site565]”, the “gcPBM binding intensity (ln)” value came to 6.94.
Take “TTAAAGTTACATTCGACACACACATAACAACTAAAT [CACACA_site9130]”: the “gcPBM binding intensity (ln)” value was determined as 7.1.
“ATATATGTATATATGTACATGAATATATAAAGAAAA [CACACA_negctrl_site315]”: the “gcPBM binding intensity (ln)” value worked out at 7.16.
For “GTTTATATTTAATTTTTTTGTTTTTTTGTGTAATTC [XGTACX_negctrl_site194]”, the “gcPBM binding intensity (ln)” value was determined as 6.77.
For “TATTTATACTAATATGCATGTAATCGAAATACAGCT [TGCATGCA_site457]”, the “gcPBM binding intensity (ln)” value was found to be 6.98.
In the case of “ACAAATAAATAAATATGTACTTAATTATATAATTGA [XGTACX_site5626]”, the “gcPBM binding intensity (ln)” value was determined as 6.87.
Consider “ATCTATTCACACTTTTAAAAATTAAATATATTATAT [TGCATGCA_negctrl_site610]”, for which the “gcPBM binding intensity (ln)” value is 7.54.
For “TAATTTTTTTTTTATAGTACACATATTAAAGAATTA [XGTACX_site2485]”, the “gcPBM binding intensity (ln)” value turned out to be 7.02.
For “AATAAAAAAAAAATATATATTTTTTTTTTTTTTTTT [CACACA_negctrl_site54]”, the “gcPBM binding intensity (ln)” value is 7.38.
For “TATATATATATATGTAGTACTTTACAAAATAATTCG [XGTACX_site5322]” the value was 9.83; for “TTATTTATACGCTATGAGTTTGATACAAACAATTAA [XGTACX_negctrl_site456]”, 6.99; for “TTTTTACGGAATTAGAGAAAAGAAATAAAAAAAAAA [XGTACX_negctrl_site436]”, 6.84.
For “TAGTTATCACATTGCACACACATTTCCTTTTACATT [CACACA_site7589]”, the “gcPBM binding intensity (ln)” value amounted to 7.29.
Under “GCATAACCTTTATATTGTACATATACCTTTATTGTT [XGTACX_site6046]” stands 7.24; under AATAAATTCATGATAGTGCAAAAATTATTTTTGTTA, 8.49; under “TTTTTTGTTATTTTCCGTTTTTTTCCATTATAATTT [GTGCAC_negctrl_site461]”, 7.03.
For “TATTCAAAGAAAAACTGTACGTGTAGCCTACATCCT [XGTACX_site7707]”, the “gcPBM binding intensity (ln)” value stood at 6.71.
For “ACGTTAAAAACAAGTTGTACACAATAAATTATTCTT [XGTACX_site6321]”, the “gcPBM binding intensity (ln)” value was found to be 7.27.
For “ATTATCCATCAAAAGGTGCAAATTTTTAATTATAAA [GTGCAC_site9932]” the value was 11.1; for “AAAGATGATAAAATATGTACACACAGTTTATACATT [XGTACX_site8703]”, 6.88.
As for “TGAGTCTTTTACATTGCACACACATTTCTTTCCTTT [CACACA_site8978]”, the “gcPBM binding intensity (ln)” value amounted to 7.3.
Consider “AAAAAAATATATATATATATATATATATTATATATG [GTGCAC_negctrl_site654]”, for which the “gcPBM binding intensity (ln)” value was determined as 7.49.
